Measured values from PMC9119546.
These are yes or no findings as the source states them, for the method shown. For part of these data: In cells and extracts the contact can be indirect. Some binding calls cover weakened binding; strength is not graded here. For part of these data: Sequences can lack the tags named with a protein.

Protein sequences, listed by entry. Tags and fused reporters are not part of them. Lines headed by an entry give the natural chain unless they say otherwise; changes in a name come on top.
UniProt P61077: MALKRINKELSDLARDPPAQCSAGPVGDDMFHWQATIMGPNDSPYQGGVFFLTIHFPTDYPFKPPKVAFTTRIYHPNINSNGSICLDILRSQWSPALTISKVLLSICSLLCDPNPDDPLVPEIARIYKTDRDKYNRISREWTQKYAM
UniProt P23804: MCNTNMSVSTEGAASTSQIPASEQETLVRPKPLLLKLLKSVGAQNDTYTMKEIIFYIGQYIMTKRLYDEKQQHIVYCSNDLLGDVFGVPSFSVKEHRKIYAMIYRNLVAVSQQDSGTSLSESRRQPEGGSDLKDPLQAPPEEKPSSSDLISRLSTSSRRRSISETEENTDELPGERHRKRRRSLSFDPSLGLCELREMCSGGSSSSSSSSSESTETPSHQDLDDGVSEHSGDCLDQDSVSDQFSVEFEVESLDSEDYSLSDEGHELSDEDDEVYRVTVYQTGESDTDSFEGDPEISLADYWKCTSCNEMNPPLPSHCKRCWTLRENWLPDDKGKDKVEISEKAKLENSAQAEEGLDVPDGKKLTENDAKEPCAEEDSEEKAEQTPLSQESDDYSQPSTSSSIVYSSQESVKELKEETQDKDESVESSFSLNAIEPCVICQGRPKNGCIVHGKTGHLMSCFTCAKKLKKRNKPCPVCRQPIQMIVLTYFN
UniProt Q00987: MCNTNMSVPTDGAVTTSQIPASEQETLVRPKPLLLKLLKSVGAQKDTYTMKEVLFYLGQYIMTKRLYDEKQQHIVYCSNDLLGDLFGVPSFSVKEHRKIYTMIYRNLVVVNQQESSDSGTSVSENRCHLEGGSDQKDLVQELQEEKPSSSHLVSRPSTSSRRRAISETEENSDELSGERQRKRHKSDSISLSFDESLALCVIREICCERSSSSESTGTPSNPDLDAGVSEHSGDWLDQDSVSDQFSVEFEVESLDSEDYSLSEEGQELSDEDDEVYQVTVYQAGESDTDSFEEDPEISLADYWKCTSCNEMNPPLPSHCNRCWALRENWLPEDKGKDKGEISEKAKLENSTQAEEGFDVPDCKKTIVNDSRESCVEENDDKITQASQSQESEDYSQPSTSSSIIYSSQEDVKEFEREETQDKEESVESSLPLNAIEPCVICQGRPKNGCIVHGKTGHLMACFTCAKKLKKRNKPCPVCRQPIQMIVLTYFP

How the values were obtained:
GST-UbcH5c [1] = biological target: GST-UbcH5c (UniProt P61077); assay: pull-down; 10 μg GST-UbcH5c (or GST) with cytosolic fraction (300 μg total protein) of 293T cells transfected with mouse MDM2 or MDM2L466A; 20 mM HEPES pH 7.5, 10 mM NaCl, 1 mM DTT, 0.1% Triton X-100; blot with 2A10; only the target purified
[2] = biological target: T1, FLAG-MDM4 expressed in p53/Mdm2/Mdm4 triple knockout MEFs (UniProt O15151); assay: co-IP; 500 μg total lysate of p53/Mdm2/Mdm4 triple knockout MEFs co-transfected with FLAG-MDM4 and mouse MDM2 (WT, Y487A or L466A); anti-FLAG M2 beads, IgG as control; blot with 2A10 (MDM2) and 17914-1-AP (MDM4)
T1 sequence: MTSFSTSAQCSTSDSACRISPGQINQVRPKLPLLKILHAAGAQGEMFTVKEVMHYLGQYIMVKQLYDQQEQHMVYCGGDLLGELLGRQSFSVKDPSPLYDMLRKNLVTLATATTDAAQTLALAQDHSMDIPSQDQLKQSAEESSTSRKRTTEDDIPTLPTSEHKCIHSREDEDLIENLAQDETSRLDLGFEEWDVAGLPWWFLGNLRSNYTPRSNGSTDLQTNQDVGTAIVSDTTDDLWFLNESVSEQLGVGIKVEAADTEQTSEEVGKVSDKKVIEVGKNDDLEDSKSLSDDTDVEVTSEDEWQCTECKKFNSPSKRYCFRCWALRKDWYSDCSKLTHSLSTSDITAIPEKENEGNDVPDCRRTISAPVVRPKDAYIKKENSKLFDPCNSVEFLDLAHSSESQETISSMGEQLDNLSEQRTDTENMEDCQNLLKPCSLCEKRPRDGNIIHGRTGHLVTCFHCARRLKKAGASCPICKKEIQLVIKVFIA

GST-UbcH5c [3] = biological target: GST-UbcH5c (UniProt P61077); assay: pull-down; GST-UbcH5c (or GST) on glutathione beads, blocked with 3% BSA; 100, 500, 1000 ng recombinant human MDM2 or L468A; 20 mM HEPES pH 7.5, 10 mM NaCl, 1 mM DTT, 0.1% Triton X-100; 1 hour at 4°C; blot with 2A9, 4B11; both purified

Substance | binding (GST-UbcH5c [1]) | binding [2] | also measured
mouse MDM2 (wild type) in p53/Mdm2/Mdm4 triple knockout MEFs (from UniProt P23804 1-489) | – | binds | –
mouse MDM2L466A in cytosolic extract of transfected 293T cells (from UniProt P23804 1-489) | no binding | – | –
human MDM2 L468A (HDM2^L468A), recombinant (from UniProt Q00987 1-491) | – | – | binding (GST-UbcH5c [3]): no binding (tested: 100 ng, 500 ng, 1000 ng)
mouse MDM2L466A in p53/Mdm2/Mdm4 triple knockout MEFs (from UniProt P23804 1-489) | – | binds | –

Now from value to substance, other results behind:

binding (GST-UbcH5c [1]) | binding [2] | Substance | also measured
binds | – | mouse MDM2 (wild type) in cytosolic extract of transfected 293T cells (from UniProt P23804 1-489) | –
– | binds | mouse MDM2Y487A in p53/Mdm2/Mdm4 triple knockout MEFs (from UniProt P23804 1-489) | –
